Residue numbers refer to the chain shown, from its start.
B1: 140 (antibody)
heavy: EVQLVQSGAEVKKPGASVKVSCKVSGYTLTELSMQWVRQAPGKGLEWMGGFDPDAGETMYAEKFQGRLTVTEDTSTDTVYMELSSLRSEDTAVYFCATSPGYDFFDYWGQGTLVTVSSASTKGPSVFPLAPSSKSTSGGTAALGCLVKDYFPEPVTVSWNSGALTSGVHTFPAVLQSSGLYSLSSVVTVPSSSLGTQTYICNVNHKPSNTKVDKRV[omitted - human IgG1 Fc with changes]
light: SYVLTQPPSVSVAPGKTARITCGGDNIGSKSVHWYQQKPGQAPVLVVYDDSDRPSGIPERFSGSNSGNTATLTISRVEAGDEADYYCQVWDSSNDLLIFGGGTKLTVLGQPKAAPSVTLFPPSSEELQANKATLVCLISDFYPGAVTVAWKADSSPVKAGVETTTPSKQSNNKYAASSYLSLTPEQWKSHRSYSCQVTHEGSTVEKTVAPTECS
B2: 141 (antibody)
heavy: EVQLVQSGAEVKKPGASVKVSCKVSGYTLTELSMQWVRQAPGKGLEWMGGFDPDSGETMYAEKFQGRLTVTEDTSTDTVYMELSSLRSEDTAVYFCATSPGYDFFDYWGQGTLVTVSSASTKGPSVFPLAPSSKSTSGGTAALGCLVKDYFPEPVTVSWNSGALTSGVHTFPAVLQSSGLYSLSSVVTVPSSSLGTQTYICNVNHKPSNTKVDKRV[omitted - human IgG1 Fc with changes]
light: B1 light
B3: 125 (antibody)
heavy: EVQLVQSGAEVKKPGASVKVSCKVSGYTLTELSMQWVRQAPGKGLEWMGGFDPDAGETMYAEKFQGRLTVTEDTSTDTVYMELRSLTSEDTALYFCATSPGYDFFDYWGQGTLVTVSSASTKGPSVFPLAPSSKSTSGGTAALGCLVKDYFPEPVTVSWNSGALTSGVHTFPAVLQSSGLYSLSSVVTVPSSSLGTQTYICNVNHKPSNTKVDKRV[omitted - human IgG1 Fc with changes]
light: B1 light with V3E, S75N
B4: 130 (antibody)
heavy: EVQLVQSGAEVKKPGASVKVSCKVSGYTLTELSMQWVRQAPGKGLEWMGGFDPDAGETMYAEKFQGRLTVTEDTSTDTVYMELSSLRSEDTAVYFCATSPGYDFFDYWGQGTLVTVSSASTKGPSVFPLAPSSKSTSGGTAALGCLVKDYFPEPVTVSWNSGALTSGVHTFPAVLQSSGLYSLSSVVTVPSSSLGTQTYICNVNHKPSNTKVDKRV[omitted - human IgG1 Fc with changes]
light: B1 light with V3E, S75N
B5: 131 (antibody)
heavy: EVQLVQSGAEVKKPGASVKVSCKVSGYTLTELSMQWVRQAPGKGLEWMGGFDPDSGETMYAEKFQGRLTVTEDTSTDTVYMELSSLRSEDTAVYFCATSPGYDFFDYWGQGTLVTVSSASTKGPSVFPLAPSSKSTSGGTAALGCLVKDYFPEPVTVSWNSGALTSGVHTFPAVLQSSGLYSLSSVVTVPSSSLGTQTYICNVNHKPSNTKVDKRV[omitted - human IgG1 Fc with changes]
light: B1 light with V3E, S75N
B6: 176 (antibody)
heavy: EVQLVQSGAEVKKPGASVKVSCKVSGYTLTELSMQWVRQAPGKGLEWMGGFDPDAGETMYAEKFQGRLTVTEDTSTDTVYMELSSLRSEDTAVYFCATSPGYDFFDYWGQGTLVTVSSASTKGPSVFPLAPSSKSTSGGTAALGCLVKDYFPEPVTVSWNSGALTSGVHTFPAVLQSSGLYSLSSVVTVPSSSLGTQTYICNVNHKPSNTKVDKRV[omitted - human IgG1 Fc with changes]
light: B1 light with K16Q, D25S, N26D, S29D, K30E, S31I, V77A, E78Q, N94S, L96H
B7: 59 (antibody)
heavy: EVQLVQSGAEVKKPGASVKVSCKVSGYTLTELSMQWVRQAPGKGLEWMGGFDPDDAETMYAEKFQGRLTVTEDTSTDTVYMELRSLTSEDTALYFCATSPGYDFFDYWGQGTLVTVSSASTKGPSVFPLAPSSKSTSGGTAALGCLVKDYFPEPVTVSWNSGALTSGVHTFPAVLQSSGLYSLSSVVTVPSSSLGTQTYICNVNHKPSNTKVDKRV[omitted - human IgG1 Fc with changes]
light: QSALTQPASVSGSPGQSITISCTGTSSDVGGYNYVSWYQQHPGKAPKLMIYEVSNRPSGVSNRFSGSNSGNTATLTINRVEAGDEADYYCQVWDSSNDLLIFGGGTKLTVLGQPKAAPSVTLFPPSSEELQANKATLVCLISDFYPGAVTVAWKADSSPVKAGVETTTPSKQSNNKYAASSYLSLTPEQWKSHRSYSCQVTHEGSTVEKTVAPTECS
B8: 73 (antibody)
heavy: EVQLVQSGAEVKKPGASVKVSCKVSGYTLTELSMQWVRQAPGKGLEWMGGFDPDEGETMYAEKFQGRLTVTEDTSTDTVYMELSSLRSEDTAVYFCATSPGYDFFDYWGQGTLVTVSSASTKGPSVFPLAPSSKSTSGGTAALGCLVKDYFPEPVTVSWNSGALTSGVHTFPAVLQSSGLYSLSSVVTVPSSSLGTQTYICNVNHKPSNTKVDKRV[omitted - human IgG1 Fc with changes]
light: SYVLTQPPSVSVAPGKTARITCTGTSSDVGGYNYVSWYQQKPGQAPVLVVYEVSNRPSGIPERFSGSNSGNTATLTISRVEAGDEADYYCQVWDSSNDLLIFGGGTKLTVLGQPKAAPSVTLFPPSSEELQANKATLVCLISDFYPGAVTVAWKADSSPVKAGVETTTPSKQSNNKYAASSYLSLTPEQWKSHRSYSCQVTHEGSTVEKTVAPTECS
B9: 71 (antibody)
heavy: EVQLVQSGAEVKKPGASVKVSCKVSGYTLTELSMQWVRQAPGKGLEWMGGFDPDAGETMYAEKFQGRLTVTEDTSTDTVYMELSSLRSEDTAVYFCATSPGYDFFDYWGQGTLVTVSSASTKGPSVFPLAPSSKSTSGGTAALGCLVKDYFPEPVTVSWNSGALTSGVHTFPAVLQSSGLYSLSSVVTVPSSSLGTQTYICNVNHKPSNTKVDKRV[omitted - human IgG1 Fc with changes]
light: B8 light
B10: 67 (antibody)
heavy: EVQLVQSGAEVKKPGASVKVSCKVSGYTLTELSMQWVRQAPGKGLEWMGGFDPDSGETMYAEKFQGRLTVTEDTSTDTVYMELRSLTSEDTALYFCATSPGYDFFDYWGQGTLVTVSSASTKGPSVFPLAPSSKSTSGGTAALGCLVKDYFPEPVTVSWNSGALTSGVHTFPAVLQSSGLYSLSSVVTVPSSSLGTQTYICNVNHKPSNTKVDKRV[omitted - human IgG1 Fc with changes]
light: B8 light
B11: 80 (antibody)
heavy: EVQLVQSGAEVKKPGASVKVSCKVSGYTLTELSMQWVRQAPGKGLEWMGGFDPDDGETMYAEKFQGRLTVTEDTSTDTVYMELSSLRSEDTAVYFCATSPGYDFFDYWGQGTLVTVSSASTKGPSVFPLAPSSKSTSGGTAALGCLVKDYFPEPVTVSWNSGALTSGVHTFPAVLQSSGLYSLSSVVTVPSSSLGTQTYICNVNHKPSNTKVDKRV[omitted - human IgG1 Fc with changes]
light: B1 light with D25N
B12: 139 (antibody)
heavy: EVQLVQSGAEVKKPGASVKVSCKVSGYTLTELSMQWVRQAPGKGLEWMGGFDPDDGETMYAEKFQGRLTVTEDTSTDTVYMELSSLRSEDTAVYFCATSPGYDFFDYWGQGTLVTVSSASTKGPSVFPLAPSSKSTSGGTAALGCLVKDYFPEPVTVSWNSGALTSGVHTFPAVLQSSGLYSLSSVVTVPSSSLGTQTYICNVNHKPSNTKVDKRV[omitted - human IgG1 Fc with changes]
light: B1 light
B13: 185 (antibody)
heavy: EVQLVQSGAEVKKPGASVKVSCKVSGYTLTELSMQWVRQAPGKGLEWMGGFDPDDGETMYAEKFQGRLTVTEDTSTDTVYMELSSLRSEDTAVYFCATSPGYDFFDYWGQGTLVTVSSASTKGPSVFPLAPSSKSTSGGTAALGCLVKDYFPEPVTVSWNSGALTSGVHTFPAVLQSSGLYSLSSVVTVPSSSLGTQTYICNVNHKPSNTKVDKRV[omitted - human IgG1 Fc with changes]
light: B1 light with K16Q, D25S, N26D, S29D, K30E, S31I, N94S, L96H
B14: 57 (antibody)
heavy: EVQLVQSGAEVKKPGASVKVSCKVSGYTLTELSMQWVRQAPGKGLEWMGGFDPDSGETMYAEKFQGRLTVTEDTSTDTVYMELRSLTSEDTALYFCATSPGYDFFDYWGQGTLVTVSSASTKGPSVFPLAPSSKSTSGGTAALGCLVKDYFPEPVTVSWNSGALTSGVHTFPAVLQSSGLYSLSSVVTVPSSSLGTQTYICNVNHKPSNTKVDKRV[omitted - human IgG1 Fc with changes]
light: B7 light
B15: 60 (antibody)
heavy: EVQLVQSGAEVKKPGASVKVSCKVSGYTLTELSMQWVRQAPGKGLEWMGGFDPDDGETMYAEKFQGRLTVTEDTSTDTVYMELSSLRSEDTAVYFCATSPGYDFFDYWGQGTLVTVSSASTKGPSVFPLAPSSKSTSGGTAALGCLVKDYFPEPVTVSWNSGALTSGVHTFPAVLQSSGLYSLSSVVTVPSSSLGTQTYICNVNHKPSNTKVDKRV[omitted - human IgG1 Fc with changes]
light: B7 light
B16: 126 (antibody)
heavy: EVQLVQSGAEVKKPGASVKVSCKVSGYTLTELSMQWVRQAPGKGLEWMGGFDPDSGETMYAEKFQGRLTVTEDTSTDTVYMELRSLTSEDTALYFCATSPGYDFFDYWGQGTLVTVSSASTKGPSVFPLAPSSKSTSGGTAALGCLVKDYFPEPVTVSWNSGALTSGVHTFPAVLQSSGLYSLSSVVTVPSSSLGTQTYICNVNHKPSNTKVDKRV[omitted - human IgG1 Fc with changes]
light: B1 light with V3E, S75N
B17: 129 (antibody)
heavy: EVQLVQSGAEVKKPGASVKVSCKVSGYTLTELSMQWVRQAPGKGLEWMGGFDPDDGETMYAEKFQGRLTVTEDTSTDTVYMELSSLRSEDTAVYFCATSPGYDFFDYWGQGTLVTVSSASTKGPSVFPLAPSSKSTSGGTAALGCLVKDYFPEPVTVSWNSGALTSGVHTFPAVLQSSGLYSLSSVVTVPSSSLGTQTYICNVNHKPSNTKVDKRV[omitted - human IgG1 Fc with changes]
light: B1 light with V3E, S75N
B18: 175 (antibody)
heavy: EVQLVQSGAEVKKPGASVKVSCKVSGYTLTELSMQWVRQAPGKGLEWMGGFDPDDGETMYAEKFQGRLTVTEDTSTDTVYMELSSLRSEDTAVYFCATSPGYDFFDYWGQGTLVTVSSASTKGPSVFPLAPSSKSTSGGTAALGCLVKDYFPEPVTVSWNSGALTSGVHTFPAVLQSSGLYSLSSVVTVPSSSLGTQTYICNVNHKPSNTKVDKRV[omitted - human IgG1 Fc with changes]
light: B1 light with K16Q, D25S, N26D, S29D, K30E, S31I, V77A, E78Q, N94S, L96H

target: T1, recombinant MBP-mutCALR Type 1 fusion protein (Homo sapiens, UniProt P27797, DEL40-40); experiment: Biacore SPR binding kinetics, Experiment 2 (parental and variant antibodies); conditions: Biacore 8K, 25° C., 1:1 binding model
T1 construct: His6 (N); purchased Cepter (cepterbiopartners.com), custom made
Protocol: The amino acid sequence of recombinant MBP-mutCALR Type 1 fusion protein used in Experiments 1 and 2 is:
Experiment 2: Recombinant MBP-mutCALR Type 1 fusion protein was custom made at Cepter (cepterbiopartners.com). Data for the interaction of antibodies with recombinant mutCALR protein were collected at 25° C. on a Biacore 8K instrument (Cytiva, Marlborough, Mass.), and all reagents were obtained from Cytiva unless otherwise specified. The experiments were conducted using Tris-buffered saline (pH 7.2), 0.005% Surfactant P20, 1 mM CaCl2) as running buffer. To prepare the capture surfaces, anti-human IgG (Fc) antibodies (Product #29234600) was amine-coupled onto a CM4 chip (Product #BR100534) under standard conditions using an Amine Coupling Kit (Product #BR100050). Anti-mutCALR antibodies were captured onto the chip surface by injecting over flow cell 2 only at a flow rate of 10 μL/min for 30 seconds. […] Recombinant MBP-mutCALR Type 1 fusion protein was prepared at nominal concentrations of 0, 0.75, 2.22, 6.67, 20, and 60 nM and injected over both flow cells 1 and 2 for 150 seconds at a flow rate of 69 L/min, followed by a 230-second dissociation phase at the same flow rate. The kinetics parameters were obtained by applying 1:1 binding model to fit the data from multiple-cycle injection experiments using Biacore Insight Evaluation software.

Row | Molecule | ka [M⁻¹ s⁻¹] | kd [s⁻¹]
1 | B1 | 763000 | 0.00541
2 | B2 | 4.18e+06 | 0.0187
3 | B3 | 3.23e+06 | 0.0154
4 | B4 | 1.08e+06 | 0.00509
5 | B5 | 996000 | 0.00481
6 | B6 | 994000 | 0.00278
7 | B7 | 945000 | 0.00136
8 | B8 | 7.18e+06 | 0.00546
9 | B9 | 4.63e+06 | 0.0107
10 | B10 | 3.05e+06 | 0.0102
11 | B11 | 3.89e+06 | 0.00248
12 | B12 | 987000 | 0.000953
13 | B13 | 5.32e+06 | 0.000911
14 | B14 | 6.12e+06 | 0.0039
15 | B15 | 1.44e+06 | 0.00166
16 | B16 | 1.29e+06 | 0.00153
17 | B17 | 9.94e+06 | 0.00527
18 | B18 | 4.53e+06 | 0.00631
